The inconclusive results got no clear call from the source; some entries with a clear call stand among them for comparison. Potencies beside an inconclusive call are fits to weak or partial responses and may not hold up. Active and inactive are the calls of the source. The call rests on the fitted dose curve; in most records, active means well fitted activation curve with a large enough effect; inconclusive means small, poorly fitted or top-dose-only effect; inactive means no such curve, though single readings can be large or run the other way.
biological target: D(1A) dopamine receptor (Homo sapiens) (UniProt P21728); assay: HTS Assay for Allosteric Agonists of the Human D1 Dopamine Receptor: Primary Screen for Potentiators (AID 488982); details: HEK293 T-REx D1 inducible cells, calcium flux, kinetic fluorescence; series mostly up to 8.37 µM; activity, positive = potentiation: at the top concentration; on activity, positive = potentiation: 0% is about no effect
Chain of UniProt P21728 (P21728 whole entry, looked up): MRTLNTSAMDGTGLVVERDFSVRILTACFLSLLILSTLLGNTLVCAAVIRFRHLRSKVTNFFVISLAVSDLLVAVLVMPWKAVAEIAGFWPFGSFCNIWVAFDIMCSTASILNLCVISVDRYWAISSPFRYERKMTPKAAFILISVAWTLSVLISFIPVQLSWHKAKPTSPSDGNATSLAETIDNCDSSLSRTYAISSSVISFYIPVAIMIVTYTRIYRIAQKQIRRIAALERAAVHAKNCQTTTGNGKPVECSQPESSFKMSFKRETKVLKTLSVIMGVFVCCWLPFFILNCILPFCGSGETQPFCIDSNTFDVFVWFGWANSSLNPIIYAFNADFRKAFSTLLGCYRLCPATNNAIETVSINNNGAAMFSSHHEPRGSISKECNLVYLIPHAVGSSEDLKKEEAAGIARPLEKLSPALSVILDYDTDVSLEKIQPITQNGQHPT
Source text: Dopamine receptors (DARs) are involved in the etiology and/or therapy of a number of neuropsychiatric and endocrine disorders. For instance, all receptor-based antiparkinsonian drugs work via stimulating the […] DAR subtype whereas all FDA-approved antipsychotic agents are antagonists of this receptor. […] There are three different types of allosteric modulators that we are seeking, two of which will stimulate or augment receptor signaling, allosteric agonists and potentiators, while the third, allosteric antagonists, will attenuate receptor signaling. The present primary screening assay measures compound agonism by tracking calcium flux in a […], inducible Hek293 Trex D1 cell line.
Freshly passaged cells are plated in 1536 well black, clear bottom plates at a density of 4000 cells/well in 3 ul of complete media containing 1x tetracycline inducer. After an overnight incubation at 30 C in 5% CO2, cells are loaded with 2 ul of the no wash Calcium Assay Kit (ABD Bioquest) and incubated at room temperature for 30 to 90 minutes. A 10 cycle (1 second/cycle) baseline measurement is taken and then the FDSS online 1536 pintool delivers 23 nl of compound library (as well as dopamine controls) to the plate. The plate is measured for kinetically at 1 cycle/sec for 180 seconds and is considered to be the agonist portion of the assay (eg, compounds which activate a positive calcium response during this portion are flagged as potential agonists). Following the 180 second read, 1 ul of an EC20 of dopamine is delivered by an onboard pipette head. Measurements are taken kinetically for an additional 180 seconds.
Potency means the concentration at half of the fitted maximal effect; tags describe the fitted curve by direction and shape.

SMILES | Potency | activity, positive = potentiation
CCC1(C2=NCCN2)Cc2ccccc2O1 (stereo not drawn) | active: 2310 nM | 
NCC(O)c1ccc(O)cc1 (stereo not drawn) |  | inactive: 13.2%
Cc1ncsc1CCCl | inconclusive: 2060 nM [activator, partial curve, poor fit] | 
CC(NC(C)(C)C)C(=O)c1cccc(Cl)c1 (stereo not drawn) | inconclusive: 1640 nM [activator, partial curve, poor fit] | 
O=c1c(O)c(-c2ccc(O)c(O)c2)oc2cc(O)cc(O)c12 | active: 4110 nM | 
C/C=C(/C)C(=O)O[C@H]1C(C)=C2[C@H]([C@@H]1OC(=O)CCCCCCC)[C@@](C)(OC(C)=O)C[C@H](OC(=O)CCC)[C@@]1(O)[C@H]2OC(=O)[C@@]1(C)O | inconclusive: 461 nM [activator, partial curve, poor fit] | 
C=C(C)[C@H]1Cc2c(ccc3c2O[C@@H]2COc4cc(OC)c(OC)cc4[C@@H]2C3=O)O1 |  | inactive: -3.28%
O=c1[nH]c2ccccc2n1CCCN1CCC(n2c(=O)[nH]c3cc(Cl)ccc32)CC1 |  | inactive: -56.5%
N#C/C(=C/c1ccc(O)c(O)c1)C(N)=S | active: 517 nM | 
CC(=O)[C@H]1CC[C@H]2[C@@H]3CC[C@H]4C[C@H](O)CC[C@]4(C)[C@H]3C(=O)C[C@]12C |  | inactive: -9.97%
CN1CC[C@@]2(C)c3cc(O)ccc3N(C)C12 (stereo partly drawn) | inconclusive: 3260 nM [activator, single point] | 
N#CC(C#N)=Cc1ccc(O)c(O)c1 | inconclusive: 2310 nM [activator, single point] | 
NCC(CC(=O)O)c1ccc(Cl)cc1 (stereo not drawn) | inconclusive: 580 nM [activator, partial curve, poor fit] | 
